Data from patent US20130337564A1, “Treatment of Pluripotent Cells” (Janssen Biotech, Inc., priority 2012, published 2013).
“And” between values parts separate entries of the source, which are not always exact repeats. Equal entries are not always repeated. At least one read-out could not be matched to a standard name with certainty.

Key:
Format in all cases: cell-based
[1] = test system: human embryonic stem cells (H9 or H1 lines); assay: Plate reader (MTS) proliferation assay
Experimental: Maintenance of human embryonic stem cells (H9 or H1 lines) was conducted as described in Example 1. Colonies of cells were maintained in an undifferentiated, pluripotent state with passage on average every four days. Passage was performed by exposing cell cultures to a solution of collagenase (1 mg/ml; Sigma-Aldrich) for 10 to 30 minutes at 37° C. followed by gentle scraping with a pipette tip to recover cell clusters. Clusters were allowed to sediment and washed to remove residual collagenase. Cell clusters were split at a ratio of 1:3 monolayer area for routine culture or a 1:1 ratio for immediate assay. The human embryonis stem cell lines used for these examples were maintained at passage numbers less than 50 and routinely evaluated for normal karyotypic phenotype as well as absence of mycoplasm contamination.
Cell clusters used in assay were evenly resuspended in normal culture medium and plated into MATRIGEL-coated 96-well Packard VIEWPLATES (PerkinElmer) in volumes of 100 μl/well. MEF conditioned medium supplemented with 8 ng/ml bFGF) was used for initial plating and recovery. Daily feeding was conducted by aspirating spent culture medium from each well and replacing with an equal volume of fresh medium. Plates were maintained at 37° C. in a humidified box, 5% CO2 throughout the duration of assay.
Primary screening assays were initiated by aspirating culture medium from each well followed by three washes in PBS to remove residual growth factors and serum. Test volumes of 80-100 μl per well were added back containing DMEM:F12 base medium (Invitrogen) supplemented with 0.5% FCS (HyClone) and 100 ng/ml activin A (R&D Biosystems) and 10 μM test compound. Positive control wells contained the same medium substituting 10-20 ng/ml Wnt3a (R&D Biosystems). Negative control wells contained base medium with 0.5% FCS without activin A or Wnt3a. Screening compounds were tested in triplicate. Wells were aspirated and fed again with identical solutions on day 2 of the assay. On days 3 and 4, all assay wells were aspirated and converted to DMEM:F 12 supplemented with 2% FCS and 100 ng/ml activin A with the exception of negative control wells which were maintained in DMEM:F12 base medium with 2% FCS.
On day 4 of assay, 15-20 μl of MTS (Promega) was added to each well and plates were incubated at 37° C. for 1.5 to 4 hours. Densitometric readings at OD490 were determined using a Molecular Devices spectrophotometer plate reader. Average readings for replicate sets were calculated along with standard deviation and coefficient of variation. Experimental wells were compared to the Activin A/Wnt3a positive control to calculate a percent control value as a measure of proliferation.
Strong hits are defined as greater than or equal to 120% of control values; moderate hits are defined as falling within the interval of 60-120% of control values. A significant number of compounds induce a proliferative response in this assay.

[2] = test system: Sox17 expression in human embryonic stem cell line H1; assay: Dose titration secondary assay: Sox17 intensity, H1
Experimental: (§1) It was important to confirm the activity of hits identified from primary screening and further analyze the range of activity by dose titration. New samples of a selective subset of primary screening hits were obtained as dry powders, solubilized to make fresh stock reagents, and diluted into secondary confirmation assays to evaluate effects on human embryonic stem cells.
(§2) Culture of two human embryonic stem cells (H1 and H9) was conducted as described in Example 1. Colonies of cells were maintained in an undifferentiated, pluripotent state on Matrigel™ ([…]) coated polystyrene plastic, using a 1:30 dilution of Matrigel™ in DMEM:F12 to coat the surface. Cells were split by enzymatic passage every four days on average. Passage was performed by exposing cell monolayers to a solution of collagenase (1 mg/ml; Sigma-Aldrich) for 10 to 60 minutes at 37° C. followed by gentle scraping with a pipette tip to recover cell clusters. Clusters were allowed to sediment by gravity, then washed to remove residual collagenase. Cell clusters were split at a 1:3 ratio for maintenance culture or a 1:1 ratio for subsequent assay. The human embryonic stem cell lines were maintained at less than passage 50 and routinely evaluated for normal karyotypic phenotype and absence of mycoplasma contamination.
(§3) Cell clusters of the H1 or H9 human embryonic stem cell lines used in the assay were evenly resuspended in culture medium and plated onto Matrigel™-coated 96-well Packard VIEWPLATES (PerkinElmer) in volumes of 100 μl/well. MEF conditioned medium supplemented with 8 ng/ml bFGF was used for initial plating and expansion. Daily feeding was conducted by aspirating spent culture medium from each well and replacing with an equal volume of fresh medium. Cultures were allowed to expand one to three days after plating prior to initiating assay. Plates were maintained at 37° C., 5% CO2 in a humidified box for the duration of assay.
(§4) A subset of hits resulting from primary screening was used for follow-up study and subsequent secondary assays. Twenty compounds available as dry powders were solubilized as 10 mM stocks in DMSO and stored dessicated at […] until use Immediately prior to assay, compound stocks were diluted 1:1000 to make 10 μM test compound in DMEM:F12 base medium (Invitrogen) supplemented with 0.5% FCS (HyClone) and 100 ng/ml Activin A (R&D Biosystems). This was further diluted two-fold in series to make a seven point dilution curve for each compound, also in DMEM:F12 base medium with 0.5% FCS and 100 ng/ml Activin A.
(§5) Assay was initiated by aspirating culture medium from cell monolayers in each well followed by three washes in PBS to remove residual growth factors and serum. Test volumes of 100 μl per well were added back containing medium with 0.5% FCS and different concentrations of inhibitor compounds with 100 ng/ml Activin A, without Wnt3a. Positive control wells contained the same base medium with 0.5% FCS and with 20 ng/ml Wnt3a (R&D Biosystems) in the absence of test compound. Negative control wells contained the same base medium with 0.5% FCS, in the absence of Activin A, Wnt3a, or test compound. Assay wells were aspirated and fed again with identical concentrations of test compound or control solutions on day 2 of assay. On days 3 and 4, all assay wells were aspirated and fed with DMEM:F12 supplemented with 2% FCS and 100 ng/ml Activin A in the absence of both test compound or Wnt3a. Parallel negative control wells were maintained on days 3 and 4 in DMEM:F12 base medium with 2% FCS.
(§6) At the end of culture, cells in 96-well plates were washed twice with PBS then fixed with 4% paraformaldehyde at room temperature for 20 minutes, washed three times more with PBS, and then permeabilized with 0.5% Triton X-100 for 20 minutes at room temperature. After fixing and permeabilizing, cells were washed again three times with PBS and then blocked with 4% chicken serum (Invitrogen) in PBS for 30 minutes at room temperature. […]

[3] = test system: human embryonic stem cell line H9; assay: Dose titration secondary assay: cell number, H9
Experimental: as §1, §2, §3, §4, §5, §6

[4] = test system: Sox17 expression in human embryonic stem cell line H9; assay: Dose titration secondary assay: Sox17 intensity, H9
Experimental: as §1, §2, §3, §4, §5, §6

## O=C1NC(=O)C(c2nn(CCCO)c3ccccc23)=C1c1cn(-c2cccnc2)c2ccc(Cl)cc12 [Compound 52, 3-(5-Chloro-1-pyridin-3-yl-1H-indol-3-yl)-4-[1-(3-hydroxypropyl)-1H-indazol-3-yl]-1H-pyrrole-2,5-dione]
[1]; relative to AA/Wnt3a/DMSO positive control (100.0) of the same plate
  % Control: 136.1%
[1]; replicate wells, plate reader proliferation screen of GSK-3B inhibitors
  Raw Data: 1.0484 and 1.0749
[2]; 0.156 μM compound
  Sox17 Intensity: 0.669
[2]; 0.313 μM compound
  Sox17 Intensity: 0.791
[2]; 0.625 μM compound
  Sox17 Intensity: 0.997
[2]; 1.25 μM compound
  Sox17 Intensity: 1.238
[2]; 2.5 μM compound
  Sox17 Intensity: 1.336
[2]; 5 μM compound
  Sox17 Intensity: 0.035
[2]; 10 μM compound
  Sox17 Intensity: 0.000
[3]; 0.156 μM compound
  Cell number: 0.095
[3]; 0.313 μM compound
  Cell number: 0.250
[3]; 0.625 μM compound
  Cell number: 0.390
[3]; 1.25 μM compound
  Cell number: 0.988
[3]; 2.5 μM compound
  Cell number: 0.668
[3]; 5 μM compound
  Cell number: 0.002
[3]; 10 μM compound
  Cell number: 0.000
[4]; 0.156 μM compound
  Sox17 Intensity: 0.074
[4]; 0.313 μM compound
  Sox17 Intensity: 0.170
[4]; 0.625 μM compound
  Sox17 Intensity: 0.246
[4]; 1.25 μM compound
  Sox17 Intensity: 0.981
[4]; 2.5 μM compound
  Sox17 Intensity: 0.914
[4]; 5 μM compound
  Sox17 Intensity: 0.001
[4]; 10 μM compound
  Sox17 Intensity: 0.000
